Experimental data from the supplement of paper PMC8728848.
The other results are listed elsewhere or left out.

Experiments:
Test in all cases: glycan array binding signal (z-score within array); higher = stronger binding
Details in all cases: glycan notation: IUPAC condensed, linker removed
[1] = target: GlcNAc(a1-4)Gal(b1-4)GlcNAc(b1-3)Gal(b1-4)GlcNAc
Method in brief: (§1)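 Negative Z-scores can be read as non-binding. The Z-score is calculated within each array and then averaged across arrays of one protein sequence at different concentrations or buffers and across linkers. Arrays, 3228 in all, were curated from the Consortium for Functional Glycomics database and kept only where the protein sequence was available.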

[2] = target: GlcNAc(a1-4)Gal(b1-4)GlcNAc(b1-3)Gal(b1-4)GlcNAc(b1-3)Gal(b1-4)GlcNAc
Method in brief: as §1

[3] = target: GlcNAc(a1-4)Gal(b1-4)GlcNAc(b1-3)Gal(b1-4)[Fuc(a1-3)]GlcNAc(b1-3)Gal(b1-4)[Fuc(a1-3)]GlcNAc
Method in brief: as §1

[4] = target: GlcNAc(a1-6)Gal(b1-4)GlcNAc
Method in brief: as §1

[5] = target: GlcNAc(b1-2)Gal(b1-3)GalNAc
Method in brief: as §1

[6] = target: GlcNAc(b1-2)Man(a1-3)[GlcNAc(b1-2)Man(a1-6)]Man(b1-4)GlcNAc(b1-4)GlcNAc
Method in brief: as §1

[7] = target: GlcNAc(b1-2)Man(a1-3)[GlcNAc(b1-2)Man(a1-6)]Man(b1-4)GlcNAc(b1-4)[Fuc(a1-6)]GlcNAc
Method in brief: as §1

[8] = target: GlcNAc(b1-2)Man(a1-3)[GlcNAc(b1-4)][GlcNAc(b1-2)Man(a1-6)]Man(b1-4)GlcNAc(b1-4)GlcNAc
Method in brief: as §1

[9] = target: GlcNAc(b1-2)[GlcNAc(b1-4)]Man(a1-3)[GlcNAc(b1-2)Man(a1-6)]Man(b1-4)GlcNAc(b1-4)GlcNAc
Method in brief: as §1

[10] = target: GlcNAc(b1-2)[GlcNAc(b1-4)]Man(a1-3)[GlcNAc(b1-4)][GlcNAc(b1-2)Man(a1-6)]Man(b1-4)GlcNAc(b1-4)GlcNAc
Method in brief: as §1

[11] = target: GlcNAc(b1-2)[GlcNAc(b1-4)]Man(a1-3)[GlcNAc(b1-4)][GlcNAc(b1-2)[GlcNAc(b1-6)]Man(a1-6)]Man(b1-4)GlcNAc(b1-4)GlcNAc
Method in brief: as §1

[12] = target: GlcNAc(b1-2)[GlcNAc(b1-6)]Man(a1-6)[GlcNAc(b1-2)Man(a1-3)]Man(b1-4)GlcNAc(b1-4)GlcNAc
Method in brief: as §1

[13] = target: GlcNAc(b1-2)[GlcNAc(b1-6)]Man(a1-6)[GlcNAc(b1-2)Man(a1-3)][GlcNAc(b1-4)]Man(b1-4)GlcNAc(b1-4)GlcNAc
Method in brief: as §1

GlcNAc(b1-3)Gal = target: GlcNAc(b1-3)Gal
Method in brief: as §1

[14] = target: GlcNAc(b1-3)Gal(b1-3)GalNAc
Method in brief: as §1

GlcNAc(b1-3)Gal(b1-4)Glc = target: GlcNAc(b1-3)Gal(b1-4)Glc
Method in brief: as §1

[15] = target: GlcNAc(b1-3)Gal(b1-4)GlcNAc
Method in brief: as §1

[16] = target: GlcNAc(b1-3)Gal(b1-4)GlcNAc(b1-3)Gal(b1-4)GlcNAc
Method in brief: as §1

GlcNAc(b1-3)GalNAc = target: GlcNAc(b1-3)GalNAc
Method in brief: as §1

GlcNAc(b1-3)Man = target: GlcNAc(b1-3)Man
Method in brief: as §1

[17] = target: GlcNAc(b1-3)[GlcNAc(b1-4)][GlcNAc(b1-6)]GlcNAc
Method in brief: as §1

[18] = target: GlcNAc(b1-3)[GlcNAc(b1-6)]Gal(b1-4)GlcNAc
Method in brief: as §1

[19] = target: GlcNAc(b1-3)[GlcNAc(b1-6)]GalNAc
Method in brief: as §1

[20] = target: GlcNAc(b1-4)Gal(b1-4)GlcNAc
Method in brief: as §1

GlcNAc(b1-4)GlcNAc = target: GlcNAc(b1-4)GlcNAc
Method in brief: as §1

[21] = target: GlcNAc(b1-4)GlcNAc(b1-4)GlcNAc
Method in brief: as §1

[22] = target: GlcNAc(b1-4)GlcNAc(b1-4)GlcNAc(b1-4)GlcNAc(b1-4)GlcNAc
Method in brief: as §1

[23] = target: GlcNAc(b1-4)GlcNAc(b1-4)GlcNAc(b1-4)GlcNAc(b1-4)GlcNAc(b1-4)GlcNAc
Method in brief: as §1

[24] = target: GlcNAc(b1-4)[GlcNAc(b1-6)]GalNAc
Method in brief: as §1

[25] = target: GlcNAc(b1-6)Gal(b1-4)GlcNAc
Method in brief: as §1

GlcNAc(b1-6)GalNAc = target: GlcNAc(b1-6)GalNAc
Method in brief: as §1

GlcNAc3Prop(b1-4)GlcNAc = target: GlcNAc3Prop(b1-4)GlcNAc
Method in brief: as §1

[26] = target: GlcNAc6S(b1-3)Gal(b1-4)GlcNAc
Method in brief: as §1

Kdn(a2-3)Gal(b1-3)GalNAc = target: Kdn(a2-3)Gal(b1-3)GalNAc
Method in brief: as §1

Kdn(a2-3)Gal(b1-3)GlcNAc = target: Kdn(a2-3)Gal(b1-3)GlcNAc
Method in brief: as §1

Kdn(a2-3)Gal(b1-4)Glc = target: Kdn(a2-3)Gal(b1-4)Glc
Method in brief: as §1

Kdn(a2-3)Gal(b1-4)GlcNAc = target: Kdn(a2-3)Gal(b1-4)GlcNAc
Method in brief: as §1

[27] = target: Kdn(a2-3)Gal(b1-4)[Fuc(a1-3)]GlcNAc
Method in brief: as §1

Kdn(a2-6)Gal(b1-4)GlcNAc = target: Kdn(a2-6)Gal(b1-4)GlcNAc
Method in brief: as §1

[28] = target: Man(a1-2)Man(a1-2)Man(a1-3)Man
Method in brief: as §1

[29] = target: Man(a1-2)Man(a1-2)Man(a1-6)[Man(a1-3)]Man
Method in brief: as §1

Man(a1-2)Man(a1-3)Man = target: Man(a1-2)Man(a1-3)Man
Method in brief: as §1

[30] = target: Man(a1-2)Man(a1-3)[Man(a1-2)Man(a1-6)]Man
Method in brief: as §1

[31] = target: Man(a1-2)Man(a1-3)[Man(a1-2)Man(a1-6)]Man(a1-6)[Man(a1-2)Man(a1-2)Man(a1-3)]Man
Method in brief: as §1

[32] = target: Man(a1-2)Man(a1-3)[Man(a1-2)Man(a1-6)]Man(a1-6)[Man(a1-2)Man(a1-2)Man(a1-3)]Man(b1-4)GlcNAc(b1-4)GlcNAc
Method in brief: as §1

B1: SefD (Salmonella enterica), Q9L6K6 (protein)
chain: GAYIIRGQNNSAHKLRIRIGGEDWQPDNSGIGMVSHSDFTNEFNIYYFGNGDIPVDTYLISIYATEIEL
- glycan array binding signal (z-score) [1]: 1.45
- glycan array binding signal (z-score) [2]: -0.4
- glycan array binding signal (z-score) [3]: -0.231
- glycan array binding signal (z-score) [4]: -0.083
- glycan array binding signal (z-score) [5]: -0.217
- glycan array binding signal (z-score) [6]: 0.117
- glycan array binding signal (z-score) [7]: -0.396
- glycan array binding signal (z-score) [8]: -0.112
- glycan array binding signal (z-score) [9]: -0.587
- glycan array binding signal (z-score) [10]: -0.079
- glycan array binding signal (z-score) [11]: 0.465
- glycan array binding signal (z-score) [12]: -0.45
- glycan array binding signal (z-score) [13]: 0.138
- glycan array binding signal (z-score) (GlcNAc(b1-3)Gal): -0.349
- glycan array binding signal (z-score) [14]: -0.29
- glycan array binding signal (z-score) (GlcNAc(b1-3)Gal(b1-4)Glc): -0.244
- glycan array binding signal (z-score) [15]: -0.394
- glycan array binding signal (z-score) [16]: -0.39
- glycan array binding signal (z-score) (GlcNAc(b1-3)GalNAc): -0.427
- glycan array binding signal (z-score) (GlcNAc(b1-3)Man): 0.855
- glycan array binding signal (z-score) [17]: -0.392
- glycan array binding signal (z-score) [18]: -0.371
- glycan array binding signal (z-score) [19]: -0.43
- glycan array binding signal (z-score) [20]: 0.874
- glycan array binding signal (z-score) (GlcNAc(b1-4)GlcNAc): 0.15
- glycan array binding signal (z-score) [21]: -0.059
- glycan array binding signal (z-score) [22]: 0.017
- glycan array binding signal (z-score) [23]: -0.363
- glycan array binding signal (z-score) [24]: -0.55
- glycan array binding signal (z-score) [25]: -0.289
- glycan array binding signal (z-score) (GlcNAc(b1-6)GalNAc): -0.218
- glycan array binding signal (z-score) (GlcNAc3Prop(b1-4)GlcNAc): 6.32
- glycan array binding signal (z-score) [26]: -0.087
- glycan array binding signal (z-score) (Kdn(a2-3)Gal(b1-3)GalNAc): -0.287
- glycan array binding signal (z-score) (Kdn(a2-3)Gal(b1-3)GlcNAc): -0.283
- glycan array binding signal (z-score) (Kdn(a2-3)Gal(b1-4)Glc): -0.629
- glycan array binding signal (z-score) (Kdn(a2-3)Gal(b1-4)GlcNAc): -0.453
- glycan array binding signal (z-score) [27]: -0.155
- glycan array binding signal (z-score) (Kdn(a2-6)Gal(b1-4)GlcNAc): 0.3
- glycan array binding signal (z-score) [28]: -0.374
- glycan array binding signal (z-score) [29]: -0.385
- glycan array binding signal (z-score) (Man(a1-2)Man(a1-3)Man): -0.321
- glycan array binding signal (z-score) [30]: -0.393
- glycan array binding signal (z-score) [31]: -0.15
- glycan array binding signal (z-score) [32]: -0.324
